# In paper PMC4336329 (PLoS ONE, 2015):
# The whole screen tested about 310,000 compounds, of which about 2,200 (0.71%) showed an effect of 50% or more. The effect is printed as a negative number. Some of the results follow. Where a SMILES comes first, the peptide text is derived from it. [ ]: non-standard residue; d: D form. The star is where a group is joined. Phe(4-Me) = Cc1ccc(C[CH](N)C(=O)O)cc1; Bz = O=C(c1ccccc1)*
# Biological target: human ether-à-go-go-related gene (hERG) potassium channel (human, UniProt Q12809)
# Assay: primary screen, population patch clamp on CHO cells stably expressing hERG
# Sequence of human ether-à-go-go-related gene (hERG) potassium channel (Q12809 whole entry, looked up): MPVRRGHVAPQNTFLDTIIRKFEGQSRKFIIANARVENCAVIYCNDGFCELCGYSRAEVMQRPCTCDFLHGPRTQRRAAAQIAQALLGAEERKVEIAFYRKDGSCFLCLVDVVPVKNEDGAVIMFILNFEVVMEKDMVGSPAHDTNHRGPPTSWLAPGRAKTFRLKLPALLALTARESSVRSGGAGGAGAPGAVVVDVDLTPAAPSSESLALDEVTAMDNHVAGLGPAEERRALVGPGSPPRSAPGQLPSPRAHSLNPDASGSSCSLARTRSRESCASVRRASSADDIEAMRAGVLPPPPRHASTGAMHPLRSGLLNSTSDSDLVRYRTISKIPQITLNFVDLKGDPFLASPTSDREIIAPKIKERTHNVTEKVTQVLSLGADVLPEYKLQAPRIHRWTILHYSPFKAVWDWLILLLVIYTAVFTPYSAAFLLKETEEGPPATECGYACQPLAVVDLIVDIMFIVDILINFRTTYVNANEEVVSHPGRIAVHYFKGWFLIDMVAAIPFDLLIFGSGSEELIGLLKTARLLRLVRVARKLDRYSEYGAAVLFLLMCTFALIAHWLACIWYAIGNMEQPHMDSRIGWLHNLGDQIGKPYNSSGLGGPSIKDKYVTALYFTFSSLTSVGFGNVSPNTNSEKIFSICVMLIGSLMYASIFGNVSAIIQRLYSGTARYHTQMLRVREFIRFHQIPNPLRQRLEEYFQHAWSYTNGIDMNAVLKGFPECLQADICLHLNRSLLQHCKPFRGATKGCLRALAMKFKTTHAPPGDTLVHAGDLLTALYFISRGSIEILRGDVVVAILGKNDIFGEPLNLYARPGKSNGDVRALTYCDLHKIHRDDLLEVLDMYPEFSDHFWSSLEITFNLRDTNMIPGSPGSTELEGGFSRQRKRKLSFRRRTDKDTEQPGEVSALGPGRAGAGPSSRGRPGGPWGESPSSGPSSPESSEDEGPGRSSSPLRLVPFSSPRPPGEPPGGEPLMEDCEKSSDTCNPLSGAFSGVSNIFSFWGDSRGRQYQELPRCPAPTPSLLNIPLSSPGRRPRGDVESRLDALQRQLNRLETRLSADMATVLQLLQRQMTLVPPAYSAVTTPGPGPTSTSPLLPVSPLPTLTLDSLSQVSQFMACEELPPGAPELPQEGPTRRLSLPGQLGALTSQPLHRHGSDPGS
row,SMILES,"hERG current change (%, negative = inhibition) at 1uM"
1,COc1ccccc1NC(=O)c1ccc(NC(=O)c2ccco2)cc1,1.05%
2,COc1ccc2nc(NC(=O)CC3Oc4ccccc4NC3=O)sc2c1 (stereo not shown),13.1%
3,CCc1ccc(C2C(C#N)=C(N)SC(N)=C2C#N)s1,19.2%
4,Cc1cc(C)cc(NC(=O)C(OC(=O)c2cc[n+]([O-])cc2)c2ccccc2)c1 (stereo not shown),-11.1%
5,Cn1c(=O)cc(OCC(=O)N2CCCc3ccccc32)c2ccccc21,14%
6,CCN(C(=O)CSc1nnc(C2CC2)n1-c1ccccc1)C1CCS(=O)(=O)C1 (stereo not shown),-1.64%
7,Cc1nc(N2CCOCC2)nc(OCCN(C)C)c1[N+](=O)[O-],7.82%
8,COCCNC(=O)c1c(CS(=O)(=O)c2ccccc2)noc1C(=O)NCc1ccccc1,10.6%
9,COc1ccccc1OCCCC(=O)Nc1ccc([N+](=O)[O-])cc1Br,7.57%
10,Cn1c(=O)c2c(nc(Br)n2CCSc2nc3ccccc3o2)n(C)c1=O,-1.34%
11,N#Cc1cccc(C(=O)OCC(=O)NC(=O)NC2CCCCC2)c1,7.94%
12,CC1(C)C2CC=C(/C=N/NC(=O)c3ccccc3O)C1C2 (stereo not shown),10.2%
13,NC(=O)CC(NC(=O)Cc1cccc2ccccc12)c1ccc(N2CCC(N3CCCCC3)CC2)c([N+](=O)[O-])c1 (stereo not shown),7.79%
14,CCCCc1c(O)c2cccc3c2n(c1=O)CCC3,12.6%
15,Cc1nnsc1NC(=O)OCC(C)(C)C,9.64%
16,COc1ccccc1C(=O)Nc1ccc(NC(=O)C2CCCCC2)nc1,12%
17,CC(C)(C)c1nnc2sc(SCC(=O)c3ccc(Cl)cc3)nn2c1=O,11.1%
18,O=C1c2ccccc2C(=O)N1CCOc1ccccc1,18.1%
19,COc1ccc(N(Cc2cc3cc(OC)ccc3[nH]c2=O)C(=O)C2CCCO2)cc1 (stereo not shown),-1.05%
20,CCN1C(=O)c2n[nH]c(C(=O)OC)c2C1=O,15.9%
21,O=C(c1cc(-c2ccncc2)nc2ccccc12)N1CCN(c2ccc(N3CCOCC3)nn2)CC1,-22.9%
22,Cc1c(CNCCc2ccccc2)c(C(=O)O)c(C)n1-c1ccccc1,13.3%

row,SMILES,"hERG current change (%, negative = inhibition) at 1uM"
1,CCS(=O)(=O)NCCc1cc2c(OC)ccc(OC)c2[nH]c1=O,18%
2,O=C(NC1CCCCC1)c1cccc(OCc2ccccc2)c1,10.9%
3,CC1CC(C)CN(CCCNC(=O)CCNC(=O)Cn2ccc3ccccc3c2=O)C1 (stereo not shown),3.99%
4,CC1(C)C2CCC1(C)C(OC(=O)C[n+]1ccccc1N)C2.[Br-] (stereo not shown),-6.78%
5,CCC(C)Nc1nc(OC)nc(N(C)C#N)n1 (stereo not shown),14.1%
6,CCN(CCCNC(=O)CSc1cc(=O)n(C)c2cc(Cl)ccc12)Cc1ccccc1,-10.8%
7,Cc1ccccc1NC(=O)c1c(Cl)nc(C)c(Cl)c1C,3.38%
8,Cc1ccc(C)c(NC(=S)N2CCN(S(C)(=O)=O)CC2)c1,14.6%
9,CCCCn1c(SCC(=O)NCc2ccco2)nc2c1c(=O)n(C)c(=O)n2C,7.48%
10,CC(C)(C)NC(=O)Nc1cccc(Cl)c1Cl,0.426%
11,Cc1ccc(-n2ncc3c2CC(C)(C)CC3NC(=O)CCN2CCCO2)cc1 (stereo not shown),-12.1%
12,Cc1ccc(-n2c(-c3nn(C)c(C)c3Cl)n[nH]c2=S)cc1,13%
13,CN(C)CCN(C(=O)c1ccc2c(c1)CCCC2)c1nc2cc3c(cc2s1)OCCO3.Cl,11.2%
14,CCOC(=O)c1sc(NC(=S)NC(=O)c2ccco2)nc1C,9.28%
15,Cc1onc(-c2ccccc2)c1C(=O)Nc1nc(-c2cc(F)ccc2F)cs1,20.9%
16,CCOc1ccc(C2C(C(=O)c3ccco3)=C(O)C(=O)N2Cc2cccnc2)cc1OC (stereo not shown),-3.53%
17,CCOC(=O)c1c(NCCN(C)C)c2ccccc2[nH]c1=O,8.62%
18,O=C(Nc1ccc(Cl)cc1F)C1CCN(S(=O)(=O)c2cccnc2)CC1,-6.11%
19,CCc1ccc(C(=O)CC2(O)C(=O)N(CN3CCOCC3)c3ccccc32)cc1 (stereo not shown),6.06%
20,CCOC(=O)c1cc(CC)sc1NC(=O)CC1SC(N)=NC1=O (stereo not shown),4.26%
21,O=C(NC(Cc1c[nH]c2ccccc12)c1nnc2n1CCCCC2)c1ccc(Cl)cc1 (stereo not shown),1.99%
22,CCOC(=O)C1=C(C)NC2=C(C(=O)c3ccccc32)C1c1cccnc1 (stereo not shown),-13.1%

row,SMILES,"hERG current change (%, negative = inhibition) at 1uM"
1,O=C(NCCC1=CCCCC1)C(=O)NCC(c1ccco1)N1CCN(c2ccccc2)CC1 (stereo not shown),2.89%
2,N#CC(C#N)=C(C#N)c1ccc(Nc2ccccc2)cc1,7.22%
3,CC(=O)c1ccc(S(=O)(=O)N(C)CCCC(=O)N2CCN(c3ncccn3)CC2)cc1,-0.663%
4,CCOC(=O)c1[nH]nc(-c2cc(CC)c(O)cc2O)c1-c1cscn1,14.6%
5,Cc1ccc(SCC(=O)Nc2nnc(C(C)(C)C)s2)cc1,15%
6,Cc1ccc(S(=O)(=O)N2CCC(C(=O)NCCC3=CCCCC3)CC2)cc1C,4.71%
7,CC(C)c1nnc(NC(=O)CCC(=O)NCc2ccco2)s1,6.79%
8,COc1ccc(C(CNc2ncnc3sccc23)N(C)C)cc1OC (stereo not shown),8.55%
9,Cc1ccc(CNC(=O)CCn2cc(-c3ccc(C)cc3)nc2CCN)cc1,2.59%
10,Fc1ccc2nc(N3CCCCC3)sc2c1,14.6%
11,C=CCn1c(SCC(=O)NC23CC4CC(CC(C4)C2)C3)nc(O)cc1=O,-20.5%
12,CC(C)n1c(O)c(/C=C2\C=Nc3ccccc32)sc1=Nc1ccccc1,15.4%
13,Oc1c(C(c2cccs2)N2CCN(c3ccccc3)CC2)sc2ncnn12 (stereo not shown),1.67%
14,Cc1ccc(N(C)C(=O)N2CCN(S(=O)(=O)c3ccc(C)c(C)c3)CC2)cc1,1.63%
15,COc1ccc(-n2c(COc3cccc(C)c3)nnc2SCC(=O)O)cc1,10.7%
16,CCOc1ccc(C(=O)c2cc([N+](=O)[O-])ccc2Cl)cc1,8.81%
17,COc1ccccc1OCCOc1ccc(/C=C2/C(=N)N3OC(C)=CC3=NC2=O)cc1OC,-5.87%
18,CCc1nnc(NC(=O)c2ccc(COc3ccccc3Cl)o2)s1,23.7%
19,COc1ccccc1CNC(=O)COC(=O)Cc1ccc(Cl)cc1,4.95%
20,O=C(NC1CCS(=O)(=O)C1)c1cn(-c2ccccc2)nc1-c1ccccc1 (stereo not shown),0.884%
21,CCNC(=S)NCc1ccc(F)cc1,6.79%
22,COc1ccc(CC(=O)Nc2ccc(C)cc2O)cc1S(=O)(=O)N1CCOCC1,5.41%

row,SMILES,"hERG current change (%, negative = inhibition) at 1uM"
1,O=C(CSc1nc2ccccc2s1)NCCOc1ccc(Cl)cc1,17.8%
2,COCc1nnc(NC(=O)CCc2ccc(OC)cc2)s1,12.6%
3,Cc1ccc(CC(NC(=O)c2ccccc2)C(=O)NC(CC(C)C)C(=O)O)cc1 (stereo not shown) (Bz-[Phe(4-Me)]-Leu-OH; configuration not given here),15.5%
4,CCN1CCN(CCCNC(=O)C2CCN(c3nnc(-n4cccc4)s3)CC2)CC1,2.05%
5,CSCCC(NC(=O)c1ccccc1Cl)C(=O)NCc1ccncc1 (stereo not shown),1.15%
6,COCCn1c(N)c(NCc2ccccc2)c(=O)[nH]c1=O,18.4%
7,O=C(COc1ccc2c3c(c(=O)oc2c1)CCC3)NCCCN1CCOCC1,20.6%
8,O=C([O-])c1ncc(Cl)c(Cl)c1Cl.[NH4+],13.4%
9,O=C(NCCc1cccc(C(F)(F)F)c1)C1CCC(=O)N(Cc2ccc(Cl)cc2)C1 (stereo not shown),-4.65%
10,O=C(/C=C/c1c(F)cccc1Cl)Nc1nc2ccccc2[nH]1,9.99%
11,CCCc1cc(=O)oc2cc(OCC(=O)Nc3ccccn3)ccc12,9.97%
12,COc1ccc(OCCCC(=O)Nc2ccc(OC)c(S(=O)(=O)N3CCOCC3)c2)cc1,5.58%
13,CCOc1ccc(CCNC(=O)COC(=O)c2ccco2)cc1OCC,7.61%
14,CN(Cc1ccccc1)C(=O)Cn1c(=O)oc2cc(S(=O)(=O)NCc3ccccc3)ccc21,3.67%
15,O=C(CNC(=O)c1cccs1)OCC(=O)c1cccs1,4.58%
16,O=C(CCCn1c(=O)[nH]c2cc(Cl)ccc2c1=O)NCCCN1CCCC1=O,1.72%
17,O=C(OCc1cc2ccccc2[nH]c1=O)c1ccccc1,4.79%
18,O=C(NCC1CCCO1)Nc1ccc(Cl)cc1 (stereo not shown),-8.42%
19,COc1cc(C(O)P(=O)(OC2CCCCC2)c2ccc(N(C)C)cc2)cc(OC)c1OC (stereo not shown),0.907%
20,CC1Cc2ccccc2N1C(=O)CSc1nnc(-c2ccc(S(=O)(=O)N3CCCC3)cc2)o1 (stereo not shown),-4.54%
21,CC(C)c1ccc(OCC(=O)Nc2ccc(OC(F)(F)F)cc2)cc1,3.79%
22,CCn1c(=O)cc(OCC(=O)N2CCC3(CC2)OCCO3)c2ccccc21,13.6%
